Experimental data from the supplement of paper PMC7826260.
Some of the results follow. The data describe in vitro nicking of single-stranded DNA by Rep domains for 1 h at 37 °C with 3 µM enzyme; only the middle of the 90-letter strands is printed. The score is log2 (uncut reads / reads without enzyme); strong cutting gives strongly negative numbers. There is no active / inactive call. Shares of all reads are compared; values above 0 arise when much of the pool is cut.

These sequences were tested on T1, Rep nickase domain of tomato golden mosaic virus (assay: uncleaved DNA left, log2 of reads against the no-enzyme library (log2 ratio); higher = less cleavage (more negative = more Rep cleavage of the k-mer); sequences stand for … in CTCGTCCG…ACCGGAGA).
T1 sequence (residues 1-124, tag not shown): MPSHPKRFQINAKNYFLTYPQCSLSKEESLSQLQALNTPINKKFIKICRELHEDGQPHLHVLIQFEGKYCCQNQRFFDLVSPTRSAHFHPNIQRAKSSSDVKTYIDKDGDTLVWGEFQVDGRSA
Description: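 A pool of 90-nt single-stranded DNAs with seven random bases just before the constant AC of the nick site (name = the seven bases) was cut by 3 µM recombinant His6-SUMO-tagged Rep nickase domain (300 nM DNA, 50 mM HEPES pH 8.0, 50 mM NaCl, 1 mM MnCl2, 1 h, 37 °C, three replicates). Uncut DNA was amplified and sequenced.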

Sequence | uncleaved DNA left (log2)
CTATAGA | 0.0323
TGCGCAT | -0.0932
TTGACTA | 0.0248
TTCAGGC | 0.0377
TTCGGCA | -0.0509
ATAATAC | 0.017
ATAAGTT | -0.44
CCGTAAT | -1.03
GCCCAGG | 0.00461
CGGACGG | 0.144
CCACAAA | -0.0662
ATGTTAC | -0.542
CAGTAGT | -0.231
TAAGTAC | 0.0193
TCACGCT | -0.044
AATGTCT | 0.0369
AAGGCAG | 0.172
AAAATGA | 0.0774
AGGAGTC | 0.0363
AATGACA | 0.0414

Sequence | uncleaved DNA left (log2)
TAAAGTC | -0.189
CTGAACG | -0.0285
TAGCCGT | -0.0359
AAAATCG | 0.119
CACTAGC | 0.0466
GTTTAAA | 0.255
CTTAAAA | 0.0608
TCTTAGT | 0.0972
CTACGTA | -0.143
GTTCTAG | 0.15
ACCCATG | 0.106
TGTGGAG | 0.153
AGAGGAT | 0.126
TCAACGA | -0.0173
CCACACC | -0.0319
CTATAAG | 0.167
AGTACGT | -0.063
GGCCCCA | -0.0317
TCACTTT | -0.137
AACTGGC | 0.0572
